The supplement of paper PMC11417369
± gives the standard deviation of the averaged measurements. Some of the results follow.

test system: PfAP2-I AP2 domain 3 (GST-tagged); assay: gcPBM binding intensity (ln(normalized median fluorescence intensity)); higher = stronger DNA binding
In short: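 Each value is the highest Masliner-normalised natural-log median intensity across replicate spots of either orientation of a probe. The probes were primer-extended double-stranded 36-bp intergenic genomic sequences on an Agilent 4 × 180k array, alongside negative controls, exposed for 1 h to GST-tagged P. falciparum DNA-binding domains expressed in E. coli. Bound protein was picked up with Alexa488 anti-GST antibody and scanned at 488 nm.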

Sequence	gcPBM binding intensity (ln)
GCTCCTTTTACCATCGCACACGATAAAAAAAAATAA [CACACA_site3255]	8.79 ± 0.16
TTTTTTTTCTAAATTATATGAAAATATATGTTATGT [GTGCAC_negctrl_site85]	7.79 ± 0.23
ACAATTTTAAAATGAACACACATGTTTTTCTTACTT [CACACA_site1014]	7.75 ± 0.74
ATTTTCTATTTTATTTGTACGTAATTTAATTTTTTT [XGTACX_site3609]	8.24 ± 0.49
TACATAAACATTTATACACACATTATAAATACATAT [CACACA_site4386]	7.82 ± 0.35
ATAAAGATTAATAAAATAAAATTCCGCAAACATATA [CACACA_negctrl_site244]	7.56 ± 0.54
TTTTGAAATTTTTGTGTTTTTCCTTTTTATTTTATA [CACACA_negctrl_site1740]	7.36 ± 0.71
ATAAATCCATGTAACTGTACTTTTTTTTTTTTTTTT [XGTACX_site7373]	8.86 ± 0.36
AAGTAATTTGTTGACACACACACACGCATACCTATA [CACACA_site7140]	8.07 ± 0.65
TCCCAATTTCTATCCTGTACAGACATAAATATATAC [XGTACX_site5937]	8.31 ± 0.49
ATAAAAATAAAATGGACACACATATATACATATTTG [CACACA_site3277]	7.58 ± 0.4
AATTATAATAAATAACGTACAAAAAATAAATTATTT [XGTACX_site3627]	7.76 ± 0.42
TTTTTTTTTGATATTTGTACTTAAGTAAATATTATA [XGTACX_site3843]	7.67 ± 0.49
TATATATTCATGTGTACACACAAAAAAAAATAAAGT [CACACA_site2207]	8.41 ± 0.65
ATAAGCGAATATATATCACACACAAAAAAATCAGAC [CACACA_site8657]	8.51 ± 0.59
ATATTACACAGATATGCACACATTGTAGTTATTTAT [CACACA_site5454]	8.91 ± 0.26
AAAAAGGAAATTTACACACACATATAACATACATTA [CACACA_site7534]	7.68 ± 0.6
ACATATCGGGTGCATTAACACACATTTATTTGAATA [CACACA_site8736]	11.8 ± 0.52
ATTATATCACTGTGTTGTACTTCTTATATAAAAATA [XGTACX_site2333]	8.2 ± 0.36
TCCGTATAATTTTGCACACGAATATAAATTTGATAA [CACACA_site136]	9.53 ± 0.2
TTTAATTCTTATATTTGTACAGATTCATAATTAAAT [XGTACX_site7465]	7.58 ± 0.46
CGTTTATTAAACTTGACACACACACCCCCACATATA [CACACA_site8151]	9.2 ± 0.13

Sequence	gcPBM binding intensity (ln)
AATCGATAACAATGTAGTACCAGAAAAATAAATATT [XGTACX_site8501]	7.9 ± 0.76
TATATATATATATATGCATGCCATATGATATATATA [TGCATGCA_site109]	9.43 ± 0.72
TCATATTTACAAAAAGGTATTAATAAATAAAATATT [CACACA_negctrl_site259]	7.67 ± 0.58
AATAAGTGTTGATTCTTAAAATGACCATATAATAAT [TGCATGCA_negctrl_site221]	7.62 ± 0.44
TATCTTTTATAAGTGACACACATAAATATTTAAATT [CACACA_site833]	7.79 ± 0.35
ATATTAGGGTCATGAACACACAAAAAAAAAAAAAAA [CACACA_site937]	8.07 ± 0.77
GCTATCATATCATGTTGTACACAACCTCAAAATGAA [XGTACX_site8757]	8.07 ± 0.55
TTGATATAAAAAGAAAGTACTTTATAGATGTTTATT [XGTACX_site8144]	7.7 ± 0.67
TATAAAAATATATATATATATATATATATATATATA [TGCATGCA_negctrl_site541]	9.12 ± 0.38
AATAATAACAAATGAACACACATATATATGAGCAAA [CACACA_site2121]	7.72 ± 0.35
TGTATAACCTGTGTTACACACATTAGAATTTATATA [CACACA_site6393]	7.58 ± 0.43
TTCTCCATCAGATACTGTACATAATATATATAATAT [XGTACX_site8827]	8.1 ± 0.33
TACATAAACTTTATAACACACACTTATATATATATA [CACACA_site1106]	9.13 ± 0.31
TATATAAAGATATATACACACAAAAAAAAAAAAAAA [CACACA_site6778]	7.95 ± 0.71
GCATCATTTATTTGCACACCTATTATATACTTTTTA [CACACA_site2098]	10.2 ± 0.25
TTTTACTCTTAAAATAATAAAAAATATTCACATTTA [CACACA_negctrl_site1508]	7.18 ± 0.54
AAAAAGAATATAAGTAGTACAGTGCATATAATAATT [XGTACX_site617]	10.3 ± 0.37
TATATATACATATACGCATGTAAATTCAAAAGTAAA [TGCATGCA_site956]	7.62 ± 0.37
AAGAGAAATGGGCACACACACACATATTATATATAT [CACACA_site1531]	8.59 ± 0.54
TATAATTTTTTTAATACACACAAATATTTATATATA [CACACA_site3042]	7.78 ± 0.34
AATTAATGTTTTGTCACACAGTATGATTATATATAT [CACACA_site6143]	8.27 ± 0.9
TTAGTATATTTTTCCTGTACGTACTCAGATACAAAT [XGTACX_site7397]	8.15 ± 0.42

Sequence	gcPBM binding intensity (ln)
TTAAATAATTTTTAATGTACATTAAATTTATTATTA [XGTACX_site261]	7.55 ± 0.3
TACACATTATGTATCATACACACAAATAAATATATA [CACACA_site608]	7.78 ± 0.29
TGAAGATAAAAATATGCACACATATATATATATATA [CACACA_site8027]	9.48 ± 0.31
CATAAAAATGAACATACACACATATATTTATTTATA [CACACA_site7222]	7.41 ± 0.43
ACATATTATAGGAATACACACAAAAACTTATCGGTA [CACACA_site7587]	7.72 ± 0.59
ATTATATATATTGGAGTGCATATATAGTATTTTATA	9.88 ± 0.4
ATAGAAATCTATTGTGATTATTATTTTATTTTTAGT [XGTACX_negctrl_site605]	7.5 ± 0.24
AATGTATTATGTAATAGTACGTATAATATCTTATTT [XGTACX_site3]	7.64 ± 0.35
ATACATATCTATAATACACACATAAATGTAACATTT [CACACA_site7621]	8.23 ± 0.52
TTCTACGTTTTAAAAAAAAAAAAAAAAAAAAAAAAA [XGTACX_negctrl_site6]	8.13 ± 0.78
GTAGGTTTATATTGTAGTACATACAAACGTTAACAA [XGTACX_site5476]	7.99 ± 0.47
ACAAAATTGATATATGCACACATATATATATTAAAT [CACACA_site8152]	8.8 ± 0.085
ATACGTATTTTCTTTTGTACATATATATAAAATATT [XGTACX_site2675]	7.91 ± 0.64
TTTATTTATTATTAAAGTACTAAAATATATTATTAT [XGTACX_site4887]	7.62 ± 0.43
AATATTGCACCATTTTGTACATAATATATTCAAATA [XGTACX_site475]	11.7 ± 0.74
TATATTTATTAGTTTCGTACGTACAAAGTTATTTTT [XGTACX_site8847]	7.98 ± 0.23
TATTTTAATATTTGTAGTACAGATTGAAATGACGAA [XGTACX_site4805]	8.19 ± 0.52
AATATAATCTTTCAAAAGAAAAAGACTTCATGAAAA [CACACA_negctrl_site1331]	7.21 ± 0.7
ATATACGCATTAATAACACACAATATGATAACAAAT [CACACA_site3623]	8.12 ± 0.3
ATTCGTGAACTAGCCAAACACACGAAAAAAAAAAAA [CACACA_site3342]	8.02 ± 0.93
ATGTAACATAGGAAATGTACATATAAATATAATTTA [XGTACX_site6452]	7.66 ± 0.35
TTTTATTGATTATTCATAAATATGCTATTCATCTAA [CACACA_negctrl_site1084]	7.36 ± 0.66

Sequence	gcPBM binding intensity (ln)
TTTTTTTTTGGGGGTGCATGCAAGACATATATTTAA [TGCATGCA_site228]	10.5 ± 0.46
CATACATATATATATACACACATACATATATATACA [CACACA_site8165]	7.99 ± 0.38
TTTTTTTTTTGATGTTGTACATATATATTATATAAT [XGTACX_site2765]	7.9 ± 0.55
GCTATTTATTTATATTGTACTTTTTTTTTTTTTTTT [XGTACX_site3624]	8.65 ± 0.38
TATTTTGTTCTTTCCACACACAAATACCTATCTTGT [CACACA_site7833]	8.35 ± 0.79
AAAAAAAAAAAATGTGCATGCTATATATATATATAT [TGCATGCA_site727]	9.56 ± 0.3
TTAACAAATAGACACACACACACACGCAAAAAAAAA [CACACA_site6387]	8.28 ± 0.47
TTTTTTTTTCATTATTGTACATTGAAACTTCATTTT [XGTACX_site6041]	7.85 ± 0.76
ATATATATATTTACATGTACACATCTATATATAAAC [XGTACX_site5581]	9.01 ± 0.014
AAAAAAAACGAACACACACACAAATATGTAAAAATA [CACACA_site6673]	7.77 ± 0.58
TAAAAACAAAAATGTTGTACATAATATAAAACAATT [XGTACX_site6380]	7.72 ± 0.47
CACACAATGGCTAGCTGTACATAATATATATCTACA [XGTACX_site4691]	7.7 ± 0.47
GAAAATAAAATAAATGCATGTAAATTTAATGTAATG [TGCATGCA_site996]	8.03 ± 0.92
TATATAAATATACAAACACACATACAAACATATATA [CACACA_site4754]	7.95 ± 0.32
GTGGGAAACATAAACACACACAAAAAGAAAAAATAG [CACACA_site4810]	8.07 ± 0.72
TCTCTAACTTTTAATACACACAAATAAATAAATAAA [CACACA_site6245]	8.04 ± 0.52
GTTTTATTTATTTCATGTACACAAAAAAGGTTTTAA [XGTACX_site6525]	8.34 ± 0.46
TACATACATACATACACACACACATATAAATACATA [CACACA_site4626]	8.84 ± 0.67
AAAATAAAATAATAAAATAAAATAATAATAAAATAA [TGCATGCA_negctrl_site401]	7.535 ± 0.064
AATACATATATATATTGTACATATAGGGAAAAATTA [XGTACX_site2275]	7.78 ± 0.54
TGGTATCAAAAGAATACACACACACCGACATATATA [CACACA_site9265]	7.68 ± 0.43
GAATATAAACATATTACACACATCTATCTGTACATT [CACACA_site5114]	7.88 ± 0.7
